Measured values: PubChem BioAssay AID504832 (National Center for Advancing Translational Sciences (NCATS), 2011)
Hit rate of the full screen: of about 310,000 compounds, about 18,000 (5.8%) were called active. The shares of active, inactive and inconclusive entries below differ from those in the screen. Calls follow the shape of the dose curve; as a rule, active = well fitted inhibition curve with a large enough effect; inconclusive = small, poorly fitted or top-dose-only effect, or another doubt; inactive = no such curve, though single readings can be large or run the other way. Potencies of inconclusive entries are left out as doubtful fits.
% is scaled to controls: 0 for no effect and ±100 for the full control effect; potency is read from the fitted curve at half-maximal effect; tags tell the direction and shape of the fitted curve.

Test: Primary qHTS for delayed death inhibitors of the malarial parasite plastid, 48 hour incubation
Details: P. falciparum luciferase growth in erythrocytes; series mostly up to 28.7 µM; activity change, negative = inhibition: at the top concentration
Method in brief: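 Luciferase-expressing P. falciparum in infected erythrocytes (2% hematocrit, 0.1% parasitemia final) in RPMI 1640/0.5% Albumax were exposed to compound for 48 hours at 37 C, 5% CO2; growth read as luminescence.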
For Cc1cccc(NC(=O)Cc2nc(-c3c[nH]c(C(=O)N4CCCC4)c3)cs2)c1, the Potency was active: 11.7 µM. With CCC(NS(=O)(=O)c1cccs1)c1ccc(C)cc1 (configuration not stated) the Potency was inconclusive [inhibitor, single point]. With Clc1ccc2[nH]c3c(NCC4CCCO4)ncnc3c2c1 (configuration not stated) the Potency was inconclusive [inhibitor, single point]. With O=S1(=O)CCOC[C@H](CC2CCCCC2)N1Cc1ccc(F)cc1 the Potency was inconclusive [inhibitor, single point]. In the case of COc1ccc(F)c(C2C(C#N)=C(N)Oc3n[nH]c(C(C)(C)C)c32)c1 (configuration not stated), the Potency is reported as inconclusive [inhibitor, partial curve, poor fit]. In the case of COc1ccc(OC2CCN(S(=O)(=O)c3ccccc3)CC2)cc1, the “activity change, negative = inhibition” value is reported as inactive: -11.9%. With Nc1ccc2c(c1)C/C(=C/c1ccco1)C2=O the “activity change, negative = inhibition” value was inactive: 332%. For c1ccc(-c2nnc(-c3ccccc3)nn2)cc1, the Potency was inconclusive [inhibitor, partial curve]. For Cc1nnsc1-c1c(C(=O)Oc2ccccc2)c(C)nn1-c1ccccc1, the Potency was active: 9.28 µM. For Cc1ccc(CN2CCN(/N=C/C(Br)=C\c3ccccc3)CC2)cc1, the Potency was inconclusive [inhibitor, full curve]. In the case of CCOc1ccc2[nH]cc(C(=O)O)c(=O)c2c1, the “activity change, negative = inhibition” value is reported as inactive: 7.56%. For O=C(CCCSc1nc(-c2ccco2)cc(C(F)(F)F)n1)NCC1CCCO1 (configuration not stated), the Potency was inconclusive [inhibitor, single point]. In the case of COc1ccc(OC)c(NC(=O)C2CCCCC2C(=O)O)c1 (configuration not stated), the Potency is reported as inconclusive [inhibitor, partial curve, poor fit]. For C=CCn1c(N)c(C(=O)OC(C)CC)c2nc3ccccc3nc21 (configuration not stated), the Potency was active: 10.4 µM. With CCCn1c(SCC(=O)OCc2ccccc2)nc2c1c(=O)n(C)c(=O)n2C the “activity change, negative = inhibition” value was inactive: 12.8%. With Cc1onc(-c2ccccc2)c1C(=O)OCCOc1ccccc1F the Potency was inconclusive [inhibitor, single point]. With Cc1ccc(C(=O)N/C(=C\c2ccccc2)C(=O)OCc2ccccc2)cc1 the “activity change, negative = inhibition” value was inactive: -26.1%. For CCn1cnc2c1c(=O)n(Cc1cccc([N+](=O)[O-])c1)c(=O)n2Cc1ccccc1, the Potency was active: 8.28 µM. With COCCn1c(SC(C)C(=O)Nc2ccc(N3CCOCC3)cc2)nnc1-c1ccncc1 (configuration not stated) the “activity change, negative = inhibition” value was inactive: 10.4%. With CCN(CC(=O)Nc1ccc(NC(C)=O)cc1)C(=O)/C=C/c1cn(-c2ccccc2)nc1-c1ccc(F)cc1 the Potency was inconclusive [inhibitor, partial curve]. With CCN(CC)c1ccc(/C=N/NC(=O)c2ccccn2)cc1 the “activity change, negative = inhibition” value was inactive: 221%. For COc1ccc(CCC(C)N2CCC(Oc3ccc(C(=O)N4CCCC4)cc3)CC2)cc1 (configuration not stated), the Potency was active: 11.7 µM. With Cc1ccc(-n2c(SCC(=O)Nc3cccc(S(N)(=O)=O)c3)nc3ccccc32)cc1 the “activity change, negative = inhibition” value was inactive: -13%. In the case of COc1ccc(-c2[nH]ncc2-c2cscn2)c(O)c1, the “activity change, negative = inhibition” value is reported as inactive: 7.76%. In the case of CN1CCc2c(sc(NC(=O)c3ccc(S(=O)(=O)N4CCCCCC4)cc3)c2C(N)=O)C1, the Potency is reported as inconclusive [inhibitor, single point]. With CCOC(=O)c1c(NC(C)=O)sc2c1CCCNC2=O the Potency was inconclusive [inhibitor, single point]. With COc1ccc(C2(C(=O)N3CCC(n4nc(-c5ccccc5)oc4=O)CC3)CC2)cc1 the Potency was inconclusive [inhibitor, single point]. For COc1cccc(-c2nnc(SCc3nc4ccccc4[nH]3)n2N)c1, the Potency was inconclusive [inhibitor, single point]. With CC(=O)CCc1ccccc1 the Potency was inconclusive [inhibitor, single point]. In the case of COc1ccc(C(=O)CSc2nc(C)cc(=O)[nH]2)cc1, the “activity change, negative = inhibition” value is reported as inactive: -3.01%. For COc1ccc(OCC(=O)N2CCC(Cc3ccccc3)CC2)cc1, the “activity change, negative = inhibition” value was inactive: -23.1%. In the case of CCOc1ccc(N(CC(=O)NC2CCCC2)C(=O)Cn2nnc(-c3ccc(C)o3)n2)cc1, the Potency is reported as inconclusive [inhibitor, partial curve, poor fit]. With CCCC[C@H]1COCCS(=O)(=O)N1Cc1ccc(Br)cc1 the Potency was inconclusive [inhibitor, partial curve, poor fit]. In the case of Cc1ccc(S(=O)(=O)NC(=O)NCCc2ccccc2)cc1, the “activity change, negative = inhibition” value is reported as inactive: 16.3%. For CCNC(=O)COc1ccc(/C=N/NC(=O)c2cccnc2)cc1OC, the “activity change, negative = inhibition” value was inactive: -6.15%. With O=c1[nH]c2ccccc2c2nc3ccccn3c12 the “activity change, negative = inhibition” value was inactive: 17.4%. For C/C(=N\NC(=O)c1cccc(F)c1)c1ccc(Br)s1, the Potency was inconclusive [inhibitor, single point]. In the case of Cc1c(C(=O)N(Cc2cccc(Br)c2)C2CCS(=O)(=O)C2)oc2ccccc12 (configuration not stated), the Potency is reported as inconclusive [inhibitor, partial curve, poor fit]. In the case of Cc1ccc2cc(C#N)c(SCC(=O)Nc3ccc4sc(C)nc4c3)nc2c1, the Potency is reported as inconclusive [inhibitor, partial curve, poor fit]. With Cc1ccccc1NC(=S)Nc1cccc2cnccc12 the Potency was active: 5.22 µM. For S=C(NCCCN1CCOCC1)Nc1ccc(Cl)c(Cl)c1, the “activity change, negative = inhibition” value was inactive: -11%. In the case of CCOc1ccc(Oc2ccc(S(=O)(=O)N3CCOCC3)cc2NC(=O)CCNC(C)=O)cc1, the Potency is reported as inconclusive [inhibitor, partial curve, poor fit]. For Cc1sc2c(=O)n3c(nc2c1C(=O)NC1CCCCC1)CCCCC3, the Potency was inconclusive [inhibitor, single point]. For C=C(C)/C=N/NC(=S)Nc1ccc(S(=O)(=O)N2CCOCC2)cc1, the Potency was inconclusive [inhibitor, single point]. In the case of COC(=O)c1sc2ncccc2c1OCc1c(Cl)cccc1Cl, the Potency is reported as inconclusive [inhibitor, full curve]. In the case of O=C(NC(=S)Nc1ccc([N+](=O)[O-])cc1O)C1CCCCC1, the Potency is reported as inconclusive [inhibitor, single point]. In the case of CCc1noc(C)c1C(=O)OCC(=O)Nc1c(F)cccc1F, the Potency is reported as inconclusive [inhibitor, single point].
